Consider one molecule from patent US20120180150A1 (published 2012).

This experiment concerns the target T1, mouse IP3R1 full length with C-terminal GFP (mouse, UniProt P11881 1-2749).
T1 construct: also called IP3R1-GFP; IP3R-GFP protein; not shown: C-terminal GFP of the pEGFP-N1 vector, with any linker from the cloning site
In words: HA-matrix co-immunoprecipitation from HEK 293 cells, anti-GFP Western blot. The method, then:
Into HEK 293 cells, a full length IP3R1-GFP expression plasmid and each of the KRAP full length, the deletion mutants, or the point-mutant expression plasmids were introduced together with lipofectamine LTX (Invitrogen), respectively, and the resulting cells were incubated for 24 hours. They were then homogenized in an extracting buffer (50 mM Tris-HCl, pH7.5, 140 mM NaCl, 0.5% NP40, 0.25M NDSB-201 (Calbiochem), and protease inhibitors (Complete EDTA-free, Roche)), and the homogenized mixture was centrifuged at 15,000 rpm for 30 minutes. The resulting supernatant was then subjected to immunoprecipitation with HA matrix (Roche) to precipitate the IP3R-GFP protein binding to the KRAP protein, and the precipitated IP3R-GFP protein was detected by Western blots using a rabbit polyclonal antibody (Clonetech) as an anti-GFP antibody. In the experiment using HCT 116 cells, the presence or absence of co-precipitation of the endogenous IP3R protein was investigated without transfection of the IP3R-GFP protein using a mouse monoclonal antibody (BD Transduction Laboratory) as an anti-IP3R3 antibody.
Background: Immunoblotting shows a protein as a band on a membrane.

T1 sequence (P11881 whole entry S1044R/E1045K): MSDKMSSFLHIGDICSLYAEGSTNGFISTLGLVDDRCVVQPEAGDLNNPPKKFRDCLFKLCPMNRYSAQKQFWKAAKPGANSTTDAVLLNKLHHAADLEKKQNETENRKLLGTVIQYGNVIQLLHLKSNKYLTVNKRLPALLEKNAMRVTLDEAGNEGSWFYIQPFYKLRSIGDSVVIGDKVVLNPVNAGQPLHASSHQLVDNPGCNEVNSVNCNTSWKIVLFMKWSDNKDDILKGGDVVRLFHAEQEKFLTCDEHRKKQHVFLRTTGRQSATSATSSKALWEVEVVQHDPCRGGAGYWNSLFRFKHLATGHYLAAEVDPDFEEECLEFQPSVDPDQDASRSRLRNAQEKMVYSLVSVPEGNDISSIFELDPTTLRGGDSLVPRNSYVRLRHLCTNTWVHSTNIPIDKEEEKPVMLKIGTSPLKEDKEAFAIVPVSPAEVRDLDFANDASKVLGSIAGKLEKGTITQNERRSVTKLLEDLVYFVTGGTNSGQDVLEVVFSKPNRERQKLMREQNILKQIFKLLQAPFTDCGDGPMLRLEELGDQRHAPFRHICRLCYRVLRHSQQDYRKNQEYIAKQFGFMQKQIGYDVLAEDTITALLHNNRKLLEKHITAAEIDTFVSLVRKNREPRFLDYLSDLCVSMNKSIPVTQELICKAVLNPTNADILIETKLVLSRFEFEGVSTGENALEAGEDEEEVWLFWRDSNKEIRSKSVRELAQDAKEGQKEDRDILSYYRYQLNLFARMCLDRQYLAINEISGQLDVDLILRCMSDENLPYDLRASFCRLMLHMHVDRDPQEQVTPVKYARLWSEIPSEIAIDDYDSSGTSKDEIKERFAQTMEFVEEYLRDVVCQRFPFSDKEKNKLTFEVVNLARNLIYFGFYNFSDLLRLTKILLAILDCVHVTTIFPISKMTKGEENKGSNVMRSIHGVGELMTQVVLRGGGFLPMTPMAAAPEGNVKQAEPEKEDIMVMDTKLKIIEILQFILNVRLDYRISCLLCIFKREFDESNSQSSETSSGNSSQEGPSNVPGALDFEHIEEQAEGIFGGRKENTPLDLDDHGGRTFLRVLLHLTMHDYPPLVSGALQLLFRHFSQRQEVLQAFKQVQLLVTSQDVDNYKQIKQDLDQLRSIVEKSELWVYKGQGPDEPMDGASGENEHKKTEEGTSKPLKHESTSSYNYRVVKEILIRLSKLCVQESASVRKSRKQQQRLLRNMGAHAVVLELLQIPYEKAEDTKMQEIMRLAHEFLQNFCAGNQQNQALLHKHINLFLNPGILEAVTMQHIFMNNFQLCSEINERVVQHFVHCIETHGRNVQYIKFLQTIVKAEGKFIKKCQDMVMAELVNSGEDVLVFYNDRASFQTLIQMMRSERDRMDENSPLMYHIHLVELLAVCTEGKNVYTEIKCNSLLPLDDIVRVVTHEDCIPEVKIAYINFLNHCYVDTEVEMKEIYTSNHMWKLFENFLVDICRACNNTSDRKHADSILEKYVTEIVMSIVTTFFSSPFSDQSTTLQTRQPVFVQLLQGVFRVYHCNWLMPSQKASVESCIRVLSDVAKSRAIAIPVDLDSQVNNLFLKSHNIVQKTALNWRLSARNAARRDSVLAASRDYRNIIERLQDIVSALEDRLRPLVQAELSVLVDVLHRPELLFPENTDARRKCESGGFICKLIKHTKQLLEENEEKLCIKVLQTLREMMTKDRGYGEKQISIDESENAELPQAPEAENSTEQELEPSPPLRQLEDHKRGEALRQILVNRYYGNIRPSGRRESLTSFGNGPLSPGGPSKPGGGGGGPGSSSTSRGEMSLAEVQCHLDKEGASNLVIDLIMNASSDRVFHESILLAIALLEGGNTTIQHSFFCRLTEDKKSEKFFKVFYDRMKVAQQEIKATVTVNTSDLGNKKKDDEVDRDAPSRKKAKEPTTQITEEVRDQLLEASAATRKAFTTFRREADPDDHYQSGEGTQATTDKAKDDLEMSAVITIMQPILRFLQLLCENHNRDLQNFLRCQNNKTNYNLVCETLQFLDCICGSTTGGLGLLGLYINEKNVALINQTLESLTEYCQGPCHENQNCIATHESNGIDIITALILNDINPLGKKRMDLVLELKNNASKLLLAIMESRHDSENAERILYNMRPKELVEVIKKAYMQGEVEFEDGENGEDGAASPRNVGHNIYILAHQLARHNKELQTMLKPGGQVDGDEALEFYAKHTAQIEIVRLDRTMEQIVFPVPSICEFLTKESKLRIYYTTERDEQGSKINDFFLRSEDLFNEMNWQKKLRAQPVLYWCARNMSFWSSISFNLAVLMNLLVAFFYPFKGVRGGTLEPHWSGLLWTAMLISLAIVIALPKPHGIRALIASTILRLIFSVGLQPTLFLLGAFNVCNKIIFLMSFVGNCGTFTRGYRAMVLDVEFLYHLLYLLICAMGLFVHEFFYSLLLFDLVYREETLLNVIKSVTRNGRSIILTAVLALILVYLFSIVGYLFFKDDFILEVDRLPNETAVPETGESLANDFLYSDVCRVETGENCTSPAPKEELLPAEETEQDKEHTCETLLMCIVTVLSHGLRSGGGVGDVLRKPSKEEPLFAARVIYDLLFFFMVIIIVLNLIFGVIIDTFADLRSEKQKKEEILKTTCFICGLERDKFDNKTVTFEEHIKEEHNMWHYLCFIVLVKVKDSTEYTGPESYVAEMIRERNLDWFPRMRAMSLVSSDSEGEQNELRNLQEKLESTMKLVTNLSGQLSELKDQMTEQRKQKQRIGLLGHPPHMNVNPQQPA

B1: mouse KRAP deletion mutant, amino acid residues 1-199, N-terminal HA tag (other)
chain: MNRPLSAEAEEELEWQVASRRRKAWAKCRSSWQASETEDLSTETTTQDEDEDDEEDLPGTKLPAPAGRGNVPNEKIAIWLKDCRTPLGASLDEQSSGTPKGVLVRNGGSFEDDLSLGAEANHLHEPDAQVENCNNILAKERRLQFHQKGRSMNSTGSGKSSGTVSSVSELLELYEEDPEEILYNLGFGRDEPDIASKIP
notes: not shown: N-terminal HA tag of the pCMV-HA vector
For the molecule B1, the binding result is given as “no binding”.
